21 compounds from the antibiotic and cytotoxicity screens of Wong et al. (2023) can be followed below.

Structures are written as SMILES. Some of the results follow.

For the test, the system named is HepG2. Description: cytotoxicity call (relative viability < 0.9). The settings on record: 10 µM.
On to `C[C@@H]1CCCCO[C@@H](CN(C)S(=O)(=O)c2ccccc2)[C@H](C)CN([C@@H](C)CO)C(=O)c2cc(NC(=O)Nc3ccc(F)cc3)ccc2O1`, for which the cytotoxicity call is “inactive”.
With `C[C@@H]1CCCCO[C@@H](CN(C)C(=O)Cc2ccccc2)[C@@H](C)CN([C@H](C)CO)C(=O)c2cc(NC(=O)c3ccccc3)ccc2O1` the entry was “inactive”; with `COc1ccc(-c2cnc3c(c2)C(=O)N([C@H](C)CO)C[C@@H](C)[C@H](CN(C)S(=O)(=O)c2ccc(OC)cc2)O3)cc1`, “inactive”; with `CC(C)N1C(=O)c2cccc(NC(=O)c3ccncc3)c2O[C@H](CN(C)Cc2ccc(Cl)cc2)[C@H]1C`, “inactive”.
Then `Cc1noc(C)c1NC(=O)N(C)C[C@@H]1Oc2ccc(NS(=O)(=O)c3c(C)noc3C)cc2C(=O)N([C@@H](C)CO)C[C@@H]1C`, with “inactive”; and `Cl.NC12CC3CC(CC(C3)C1)C2`, with “inactive”; and `Clc1ccc(CSC(Cn2ccnc2)c2ccc(Cl)cc2Cl)cc1.O=[N+]([O-])O` (stereo unspecified), with “active”.
Then `C[C@@H]1CN([C@@H](C)CO)C(=O)c2cccc(NC(=O)Nc3ccc(C(F)(F)F)cc3)c2O[C@H]1CN(C)Cc1ccc(Oc2ccccc2)cc1`, with “inactive”.
Consider `C[C@@H]1CN([C@@H](C)CO)C(=O)Cc2cc(NC(=O)Cc3cn(C)c4ccccc34)ccc2O[C@@H]1CN(C)S(C)(=O)=O`, for which the cytotoxicity call is “inactive”.
With `CN(C)c1ccc(O)c2c1C[C@@H]1C[C@@H]3[C@@H](N(C)C)C(=O)C(C(N)=O)=C(O)[C@]3(O)C(=O)[C@H]1C2=O` the entry was “inactive”; with `C[C@@H]1CN([C@@H](C)CO)C(=O)c2cc(N(C)C)ccc2O[C@@H](C)CCCCO[C@H]1CN(C)Cc1ccc(C(F)(F)F)cc1`, “inactive”; with `C[C@H]1CCCCO[C@@H](CN(C)Cc2ccccc2)[C@@H](C)CN([C@@H](C)CO)C(=O)c2cc(NS(=O)(=O)c3ccc(Cl)cc3)ccc2O1`, “active”.
Then `CCCC#Cc1cnc2c(c1)C(=O)N([C@H](C)CO)C[C@H](C)[C@H](CN(C)C(=O)c1ccc3c(c1)OCO3)O2`, with “inactive”; and `CC(C)NC(=O)Nc1ccc2c(c1)C(=O)N([C@H](C)CO)C[C@@H](C)[C@H](CN(C)S(=O)(=O)c1cn(C)cn1)OCCCC[C@@H](C)O2`, with “inactive”.
Then `C[C@@H]1CCCCO[C@H](CN(C)CC2CCCCC2)[C@H](C)CN([C@H](C)CO)C(=O)c2cc(NC(=O)CCCN(C)C)ccc2O1`, with “inactive”; and `COCC(=O)N1C[C@@H](C(=O)N2CCCO2)C[C@@H]2OCC[C@@H]21`, with “inactive”; and `Cc1noc(C)c1S(=O)(=O)Nc1ccc2c(c1)C(=O)N([C@H](C)CO)C[C@H](C)[C@@H](CN(C)C(=O)Nc1ccc(C(F)(F)F)cc1)OCCCC[C@@H](C)O2`, with “inactive”.
For the compound `C[C@@H]1CN([C@H](C)CO)C(=O)Cc2cc(NC(=O)CCC(F)(F)F)ccc2O[C@H]1CN(C)Cc1ccc(C(F)(F)F)cc1`, the cytotoxicity call is “active”.
Turning to `COCC#Cc1cnc2c(c1)C(=O)N([C@@H](C)CO)C[C@H](C)[C@@H](CN(C)C(=O)Nc1ccc(OC)cc1)O2`, the cytotoxicity call was “inactive”.
With `O=C(C[C@@H]1CC[C@@H]2[C@H](COC[C@@H](O)CN2S(=O)(=O)c2ccccc2)O1)N1CCc2ccccc2C1` the entry was “inactive”; with `C[C@H](CO)N1C[C@H](C)[C@@H](CN(C)C(=O)c2cccc(F)c2)Oc2cc(-c3cncnc3)ccc2S1(=O)=O`, “inactive”.
